The supplement of paper PMC4967469
A lower IC50 marks a more sensitive line; a limit (>, <) means that the fit lies beyond the doses tested. AUC, from the same fit, is the share of area under the viability curve across the 256-fold dose range: 1 means no effect, lower means more sensitive. For some of these results: An inferred top dose was derived from the fitted curves, not read from the paper. For some of these results: Where an entry number is given, a second screen of the drug exists; the two often differ.

Assays:
Test in all cases: Viability of human cancer cell lines after 72 h of drug (GDSC screen)
[1] = compound: NC(=O)C1CCCc2c1[nH]c1ccc(Cl)cc21 [EX-527]; conditions: top dose 20 µM
Experimental: (§1)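 Human cancer cell lines in 384-well plates, medium with 10% serum, drug for 72 h over a 256-fold dose range (nine 2-fold or five 4-fold steps up to the top dose). Adherent lines were fixed and stained with the nucleic acid dye Syto60, suspension lines read with resazurin; signal relative to control wells, capped at 0 and 100%. One two-parameter sigmoid per drug and line, fitted in a mixed model over all curves with the slope shared within a line.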

[2] = compound: Nc1ccc(C(=O)Nc2cccc(-c3nc(N4CCOCC4)c4oc5ncccc5c4n3)c2)cn1 [YM201636]; conditions: top dose 5.12 µM; top dose inferred
Experimental: as §1

[3] = compound: Cn1cnc2c(F)c(Nc3ccc(Br)cc3Cl)c(C(=O)NOCCO)cc21 [AZD6244]; conditions: top dose 4 µM; screen: GDSC drug entry 1498; top dose inferred
Experimental: as §1

[4] = compound: N#CC(c1ccnc(NCCc2cccnc2)n1)c1nc2ccccc2s1 [AS601245]; conditions: top dose 8 µM; top dose inferred
Experimental: as §1

Cell Line | AUC [1] | IC50 [1] [µM] | AUC [2] | IC50 [2] [µM] | AUC [3] | IC50 [3] [nM] | AUC [4] | IC50 [4] [µM]
PE/CA-PJ15 (head and neck, adherent) | 0.978 | > 20 | 0.965 | > 5.12 | 0.682 | 844 | 0.986 | > 8
PL4 (pancreas, adherent) | 0.986 | > 20 | 0.958 | > 5.12 | 0.669 | 750 | 0.902 | > 8
PL18 (pancreas, adherent) | 0.983 | > 20 | 0.981 | > 5.12 | 0.82 | 2280 | 0.969 | > 8
RCM-1 (large intestine, adherent) | 0.979 | > 20 | 0.985 | > 5.12 | 0.722 | 1240 | 0.906 | > 8
RD (rhabdomyosarcoma, adherent) | 0.984 | > 20 | 0.872 | > 5.12 | 0.605 | 498 | 0.864 | > 8
RERF-GC-1B (stomach, adherent) | 0.96 | > 20 | 0.85 | 4.6 | 0.869 | > 4000 | 0.974 | > 8
RERF-LC-KJ (lung adenocarcinoma, adherent) | 0.987 | > 20 | 0.875 | > 5.12 | 0.945 | > 4000 | 0.773 | 3.2
RERF-LC-MS (lung adenocarcinoma, adherent) | 0.983 | > 20 | 0.912 | > 5.12 | 0.755 | 1390 | 0.93 | > 8
RERF-LC-Sq1 (lung squamous cell carcinoma, adherent) | 0.979 | > 20 | 0.955 | > 5.12 | 0.83 | > 4000 | 0.787 | 5.4
RH-41 (rhabdomyosarcoma, adherent) | 0.991 | > 20 | 0.989 | > 5.12 | 0.976 | > 4000 | 0.921 | > 8
RKN (ovary, adherent) | 0.982 | > 20 | 0.9 | > 5.12 | 0.356 | 97.6 | 0.875 | > 8
RMG-I (ovary, adherent) | 0.981 | > 20 | 0.93 | > 5.12 | 0.488 | 230 | 0.885 | > 8
RO82-W-1 (thyroid, adherent) | 0.982 | > 20 | 0.982 | > 5.12 | 0.88 | > 4000 | 0.849 | > 8
RPMI-2650 (head and neck, adherent) | 0.973 | > 20 | 0.814 | 3.08 | 0.978 | > 4000 | 0.739 | 2.57
RT4 (bladder, adherent) | 0.987 | > 20 | 0.844 | 3.95 | 0.951 | > 4000 | 0.867 | 7.83
RT-112 (bladder, adherent) | 0.982 | > 20 | 0.913 | > 5.12 | 0.857 | 3670 | 0.888 | > 8
RVH-421 (melanoma, adherent) | 0.971 | > 20 | 0.811 | 4.04 | 0.628 | 643 | 0.898 | > 8
SAS (head and neck, adherent) | 0.98 | > 20 | 0.95 | > 5.12 | 0.771 | 1710 | 0.886 | > 8
SAT (head and neck, adherent) | 0.975 | > 20 | 0.964 | > 5.12 | 0.659 | 881 | 0.761 | 4.45
SBC-3 (small cell lung carcinoma, adherent) | 0.96 | > 20 | 0.879 | 4.44 | 0.957 | > 4000 | 0.761 | 2.61
SBC-5 (small cell lung carcinoma, adherent) | 0.993 | > 20 | 0.919 | > 5.12 | 0.98 | > 4000 | 0.8 | 3.07

Cell Line | AUC [1] | IC50 [1] [µM] | AUC [2] | IC50 [2] [µM] | AUC [3] | IC50 [3] [nM] | AUC [4] | IC50 [4] [µM]
SCC-4 (head and neck, adherent) | 0.98 | > 20 | 0.958 | > 5.12 | 0.795 | 2270 | 0.769 | 3.58
SCC-9 (head and neck, adherent) | 0.978 | > 20 | 0.813 | 3.77 | 0.523 | 293 | 0.93 | > 8
SCC-25 (head and neck, adherent) | 0.983 | > 20 | 0.827 | 3.68 | 0.81 | 2450 | 0.785 | 3.92
SF295 (glioma, adherent) | 0.982 | > 20 | 0.961 | > 5.12 | 0.938 | > 4000 | 0.792 | 3.94
SISO (cervix, adherent) | 0.986 | > 20 | 0.927 | > 5.12 | 0.81 | 2000 | 0.812 | 4.08
SJRH30 (rhabdomyosarcoma, adherent) | 0.977 | > 20 | 0.986 | > 5.12 | 0.979 | > 4000 | 0.878 | > 8
SK-CO-1 (large intestine, adherent) | 0.989 | > 20 | 0.869 | 4.24 | 0.681 | 774 | 0.873 | 6.92
SK-HEP-1 (liver, adherent) | 0.977 | > 20 | 0.969 | > 5.12 | 0.893 | > 4000 | 0.841 | 5.03
SK-LU-1 (lung adenocarcinoma, adherent) | 0.972 | > 20 | 0.9 | > 5.12 | 0.814 | 2970 | 0.745 | 3.11
SK-MEL-3 (melanoma, adherent) | 0.886 | > 20 | 0.791 | 2.71 | 0.663 | 766 | 0.89 | > 8
SK-MEL-24 (melanoma, adherent) | 0.975 | > 20 | 0.803 | 3.2 | 0.556 | 367 | 0.897 | > 8
SK-MEL-30 (melanoma, adherent) | 0.986 | > 20 | 0.917 | > 5.12 | 0.341 | 88.2 | 0.882 | > 8
SK-MES-1 (lung squamous cell carcinoma, adherent) | 0.971 | > 20 | 0.967 | > 5.12 | 0.784 | 1870 | 0.788 | 3.86
SK-N-AS (neuroblastoma, adherent) | 0.984 | > 20 | 0.928 | > 5.12 | 0.447 | 175 | 0.98 | > 8
SK-N-SH (neuroblastoma, adherent) | 0.987 | > 20 | 0.822 | 2.95 | 0.966 | > 4000 | 0.758 | 2.76
SK-OV-3 (ovary, adherent) | 0.975 | > 20 | 0.908 | > 5.12 | 0.923 | > 4000 | 0.797 | 4.92
SKG-IIIa (cervix, adherent) | 0.983 | > 20 | 0.981 | > 5.12 | 0.926 | > 4000 | 0.933 | > 8
SKN (uterus, adherent) | 0.976 | > 20 | 0.853 | > 5.12 | 0.879 | > 4000 | 0.844 | 7.61
SKN-3 (head and neck, adherent) | 0.982 | > 20 | 0.929 | > 5.12 | 0.897 | > 4000 | 0.943 | > 8
SN12C (kidney, adherent) | 0.981 | > 20 | 0.986 | > 5.12 | 0.846 | 3470 | 0.973 | > 8
SNG-M (endometrium, adherent) | 0.986 | > 20 | 0.89 | > 5.12 | 0.748 | 1260 | 0.607 | 0.975

Cell Line | AUC [1] | IC50 [1] [µM] | AUC [2] | IC50 [2] [µM] | AUC [3] | IC50 [3] [nM] | AUC [4] | IC50 [4] [µM]
SNU-182 (liver, adherent) | 0.986 | > 20 | 0.866 | 4.93 | 0.881 | > 4000 | 0.901 | > 8
SNU-387 (liver, adherent) | 0.964 | > 20 | 0.91 | > 5.12 | 0.755 | 1530 | 0.763 | 3.26
SNU-398 (liver, adherent) | 0.959 | > 20 | 0.751 | 1.75 | 0.928 | > 4000 | 0.635 | 1.2
SNU-423 (liver, adherent) | 0.98 | > 20 | 0.927 | > 5.12 | 0.866 | > 4000 | 0.749 | 2.99
SNU-449 (liver, adherent) | 0.986 | > 20 | 0.938 | > 5.12 | 0.815 | 2460 | 0.78 | 3.62
SNU-C2B (large intestine, adherent) | 0.976 | > 20 | 0.914 | > 5.12 | 0.872 | > 4000 | 0.766 | 3.88
SU8686 (pancreas, adherent) | 0.981 | > 20 | 0.982 | > 5.12 | 0.934 | > 4000 | 0.907 | > 8
SU-DHL-5 (B-cell lymphoma, suspension) | 0.955 | > 20 | 0.786 | 1.65 | 0.923 | 3530 | 0.812 | 3.03
SUIT-2 (pancreas, adherent) | 0.986 | > 20 | 0.861 | 4.7 | 0.631 | 586 | 0.915 | > 8
SW13 (adrenal gland, adherent) | 0.985 | > 20 | 0.988 | > 5.12 | 0.741 | 1240 | 0.797 | 3.85
SW48 (large intestine, adherent) | 0.984 | > 20 | 0.959 | > 5.12 | 0.766 | 1470 | 0.687 | 1.66
SW156 (kidney, adherent) | 0.981 | > 20 | 0.925 | > 5.12 | 0.947 | > 4000 | 0.908 | > 8
SW620 (large intestine, adherent) | 0.987 | > 20 | 0.956 | > 5.12 | 0.597 | 446 | 0.826 | 4.1
SW626 (ovary, adherent) | 0.979 | > 20 | 0.928 | > 5.12 | 0.679 | 874 | 0.82 | 5.71
SW756 (cervix, adherent) | 0.98 | > 20 | 0.985 | > 5.12 | 0.807 | 2540 | 0.924 | > 8
SW780 (bladder, adherent) | 0.983 | > 20 | 0.986 | > 5.12 | 0.668 | 771 | 0.977 | > 8
SW837 (large intestine, adherent) | 0.978 | > 20 | 0.948 | > 5.12 | 0.681 | 949 | 0.775 | 4.22
SW900 (lung squamous cell carcinoma, adherent) | 0.98 | > 20 | 0.97 | > 5.12 | 0.888 | > 4000 | 0.758 | 3.18
SW948 (large intestine, adherent) | 0.979 | > 20 | 0.933 | > 5.12 | 0.973 | > 4000 | 0.926 | > 8
SW982 (soft tissue, adherent) | 0.985 | > 20 | 0.939 | > 5.12 | 0.73 | 1150 | 0.625 | 1.11
